Assay results taken from PubChem BioAssay AID1508642 (National Center for Advancing Translational Sciences (NCATS), 2021).
The campaign covered roughly 43,000 compounds. About 200 (0.47%) were called active. Another 12% or so got no clear call; they are omitted. Calls follow the shape of the dose curve; as a rule, active = well fitted cell-killing curve with a large enough effect; inconclusive = small, poorly fitted or top-dose-only effect, or effect the other way; inactive = flat fitted curve, though single readings scatter. The list shows a part of the results.

Assay: Cell viability qHTS assay in S16 Pmp22-F2sN cells; also: nearly all actives have a fitted effect of over 65% in size
Details: S16 Pmp22-F2sN Schwann cells viability, CellTiter-Glo, 24 h; series mostly up to 57.5 µM; activity change, negative = cytotoxicity: at the top concentration
In short: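 S16 Pmp22-F2sN Schwann cells (500-1,000/well) in phenol-red-free DMEM with 10% FBS received 23 nL compound by pin tool for 24 h at 37 °C. Viability was then read as CellTiter-Glo luminescence after 15 min at room temperature.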
% is scaled to controls: 0 for no effect and ±100 for the full control effect.

| Structure (SMILES) | activity change, negative = cytotoxicity |
| --- | --- |
| O=C1CC(c2nc(-c3cccc(Cl)c3)no2)CN1c1ccc2c(c1)OCCO2 (stereo not drawn) | inactive: 2.57% |
| O=C(Nc1ccc2c(c1)N(C1CCCC1)C(=O)c1ccccc1S2)c1cccc(F)c1 | inactive: -27.5% |
| CC(C)Oc1ccc(CNC(=O)CCn2c(=O)c3cccn3c3ccc(F)cc32)cc1 | inactive: 12.3% |
| COc1cccc(CNC(=O)C2CCCN(c3ncnc4onc(-c5ccc(F)cc5)c34)C2)c1 (stereo not drawn) | inactive: 0.504% |
| CC(C)OCCCNC(=O)CN1C(=O)CSc2ccc(S(=O)(=O)N3CCCCC3)cc21 | inactive: -1.74% |
| CCOc1ccccc1CNC(=O)CCc1cn(Cc2ccc(Cl)cc2)c2ccccc12 | inactive: -19.8% |
| CCN(C(=O)Cn1c(=O)oc2cc(S(=O)(=O)N3CCCC3)ccc21)c1cccc(C)c1 | inactive: -8.08% |
| Cc1n[nH]c(C)c1S(=O)(=O)N(CC(=O)NCc1ccccc1Cl)c1ccc(C(C)C)cc1 | inactive: -13.2% |
| Cc1ccc(-n2nnnc2C2CCN(S(=O)(=O)c3ccc(OC(F)(F)F)cc3)CC2)cc1 | inactive: -4.42% |
| O=C(CCS(=O)(=O)c1cc2c(cc1Cl)NC(=O)CO2)NCCc1ccc(Cl)cc1 | inactive: 6.57% |
| COc1ccc(NC(=O)CSc2nc(-c3ccco3)cc(C(F)(F)F)n2)c(OC)c1 | inactive: 4.89% |
| CCCc1nn2c(=O)cc(COc3ccc(/C=C(\C#N)C(=O)Nc4ccc(F)cc4)cc3)nc2s1 | inactive: 10.9% |
| CCN(CC)C(=O)Cn1c(SCCOc2ccc(Cl)cc2)nc2ccccc21 | inactive: 5.33% |
| COc1ccc(NC(=O)c2ccc(CNS(=O)(=O)c3ccc4c(c3)C(C)(C)C(=O)N4C)cc2)cc1 | inactive: -9.52% |
| CC(=O)N1c2ccccc2C(=O)C1N1CCN(c2ccc(F)cc2)CC1 (stereo not drawn) | inactive: 3.75% |
| Cc1ccc2oc(-c3cc(NC(=O)c4ccc5c(c4)OCCO5)cc(C)c3O)nc2c1 | inactive: 8.33% |
| COc1cc(NC(=O)c2nc3ccccc3nc2C)cc(OC)c1OC | inactive: -1.42% |
| COc1ccc(C2C(=O)N(C3CCCCC3)CC(=O)N2CCc2ccc(OC)c(OC)c2)cc1 (stereo not drawn) | inactive: 14.8% |
| Cc1ccc(C)c(CN2C(=O)C3(c4ccccc42)N(c2cccc(C(F)(F)F)c2)C(=O)CS3(=O)=O)c1 (stereo not drawn) | inactive: 24% |
| Cc1ccccc1OCc1ccc(-c2nc(C#N)c(N3CCN(C)CC3)o2)o1 | inactive: -7% |
| Cc1ccc(Cl)cc1N1CCN(C(=O)c2cccn3c(=O)c4cc(Cl)ccc4nc23)CC1 | inactive: -3.49% |
| CC1=C(C(=O)OCC(C)C)C(c2ccc(OCc3ccccc3)cc2)N2C(=O)CCSC2=N1 (stereo not drawn) | inactive: -11.1% |
| Cc1ccc(-n2nc(C(=O)Nc3ccc(Cl)cn3)c3c4ccccc4n(C)c3c2=O)cc1 | inactive: 9.64% |
| CCC(C(=O)N1CCN(c2ccccc2F)CC1)n1nc(C)c2sc3ccccc3c2c1=O (stereo not drawn) | inactive: 6.03% |

| Structure (SMILES) | activity change, negative = cytotoxicity |
| --- | --- |
| COc1cc(CN(C(=O)c2cccc(Cl)c2)c2ccccn2)cc(OC)c1OC | inactive: -2.18% |
| COc1ccc(NC(=O)CCn2nc(-c3ccccc3OC)c3c(C)cc(C)nc32)cc1 | inactive: 4.36% |
| Cc1ccc(C2CC(=O)N(Cc3ccccc3)c3c2c(C)nn3-c2nc(C)cc(C)n2)cc1 (stereo not drawn) | inactive: -7.64% |
| CC1CN(C(=O)N2CCC(C(=O)NCCC3=CCCCC3)CC2)c2cc(Cl)ccc2O1 (stereo not drawn) | inactive: -20.9% |
| COc1ccc(NC(=O)CSc2nc3ccncc3[nH]2)c(OC)c1 | inactive: -11.1% |
| Cc1cc(NC(=O)CSc2nc3c([nH]c4ccccc43)c(=O)n2-c2ccccc2)no1 | inactive: 7.5% |
| O=c1cc(-c2ccc(F)cc2)nc(SCc2nc(-c3cccc(Cl)c3)no2)[nH]1 | inactive: -3.41% |
| CCc1ccc(NC(=O)CSc2nccn2-c2cccc(C)c2C)cc1 | inactive: -6.83% |
| CCc1ccc(NC(=O)c2ccc(F)c(S(=O)(=O)N(C)C3CCCCC3)c2)cc1 | inactive: -28.8% |
| Cc1ccc(C)n1-c1c(C(=O)NCCCN2CCN(c3ccc(F)cc3)CC2)sc2ncccc12 | inactive: -3.83% |
| Cc1ccc2c(=O)cc(C(=O)Nc3sc4c(c3C(N)=O)CCCC4)oc2c1 | inactive: -4.4% |
| Cc1ccc(Cl)cc1-n1ncc2c(NCCCn3ccnc3)ncnc21 | inactive: -0.211% |
| O=C(C1CCN(S(=O)(=O)Cc2ccccc2)CC1)N1CCN(c2ccc(F)cc2)CC1 | inactive: -1.6% |
| Cc1cc2nc(-c3ccc(OCc4ccc(F)cc4)cc3)cc(C(F)(F)F)n2n1 | inactive: -3.25% |
| Cc1ccc(C)c(Cn2c(=O)n(Cc3ccc4c(c3)OCO4)c(=O)c3oc4ccccc4c32)c1 | inactive: -3.37% |
| CCCCOc1ccc(C(=O)NCCc2sc(-c3cccc(F)c3)nc2C)cc1 | inactive: -5.81% |
| O=C(Nc1ccc(NC(=O)c2cccs2)cc1)c1cccc(Br)c1 | inactive: 10.2% |
| CCc1cccc(NC(=O)c2cnc(SC)nc2-c2ccccc2)c1 | inactive: -7.4% |
| Cc1nc2sc(C(=O)Nc3ccc(F)cc3)c(N)c2c(-c2ccc(Br)cc2)c1C(=O)Nc1ccc(Cl)cc1 | inactive: -12.7% |
| CCOc1ccc(/C=C/c2nc(C#N)c(NC(C)CC)o2)cc1 (stereo not drawn) | inactive: 0.632% |
| CCOc1ccc(Sc2cc(C(=O)NC(C)CC)c3ccccc3n2)cc1 (stereo not drawn) | inactive: 11.2% |
| COc1ccc(N2CCN(S(=O)(=O)c3ccc(OC)c(-c4noc(C)n4)c3)CC2)cc1 | inactive: -6.17% |
| O=C(Cn1ncc2c3ccccc3n(Cc3ccc(Cl)cc3)c2c1=O)NCc1cccs1 | inactive: 5.41% |
| COc1ccc(-c2cn3nc(N4CCC(C(=O)Nc5cccc(OC)c5)CC4)sc3n2)cc1 | inactive: -1.16% |

| Structure (SMILES) | activity change, negative = cytotoxicity |
| --- | --- |
| CCOc1ccccc1NC(=O)C(C)Sc1nc(-c2ccccc2)c(C#N)c(=O)[nH]1 (stereo not drawn) | inactive: -0.849% |
| N#Cc1ccccc1Cn1c(=O)n(CCCCC(=O)NCc2ccc3c(c2)OCO3)c(=O)c2ccccc21 | inactive: 6.35% |
| Cc1ccccc1C(=O)Nc1nnc(S(=O)(=O)N(C)Cc2ccc(Cl)cc2)s1 | inactive: 10.7% |
| O=C(Cc1ccc(F)cc1)N1CCC(c2nc3c(nnn3Cc3ccc(F)cc3)c(=O)[nH]2)CC1 | inactive: 3.59% |
| CCCn1c(=O)c2sccc2n2c(CCCC(=O)Nc3ccccc3OCC)nnc12 | inactive: 5.75% |
| COc1ccc(CC(=O)N2CC(=O)Nc3ccc(Br)cc3C2c2ccc(F)cc2)cc1 (stereo not drawn) | inactive: -24.5% |
| Cc1ccc(CN(C(=O)COc2ccc(C(C)C)cc2)C2CCS(=O)(=O)C2)o1 (stereo not drawn) | inactive: -20.9% |
| O=C(CCSCc1ccccc1F)N1CCN(c2ccc(Cl)cc2)CC1 | inactive: 9.87% |
| COc1ccc(-c2nc3ccccc3o2)cc1NC(=O)CSc1ccc(Cl)cc1 | inactive: 0.435% |
| COc1ccc(CC(=O)Nc2c(C(=O)Nc3ccc(F)cc3)oc3ccccc23)cc1OC | inactive: 15.8% |
| COc1ccc(OC)c(CCNC(=O)CN2C(=O)COc3ccc(S(=O)(=O)N4CCC(C)CC4)cc32)c1 | inactive: -10.8% |
| COc1ccc(-n2c(/C=C/c3cccc4ccccc34)nc3ccccc3c2=O)cc1Cl | inactive: -21.5% |
| CCCN1CCN(CCNC(=O)Nc2cc(C)ccc2OC)CC1 | inactive: 5.56% |
| COc1cc2c(C(=O)Nc3ccc(C)cc3Br)cn(C)c(=O)c2cc1OC | inactive: -3.36% |
| CCOC(=O)c1ccc(NC2=CC(c3ccc(O)c(OCC)c3)N(c3ccc(C(=O)OCC)cc3)C2=O)cc1 (stereo not drawn) | inactive: 7.56% |
| CCC1CCCCN1CCCNC(=O)c1c(O)nc2c(C)cccn2c1=O (stereo not drawn) | inactive: 23.8% |
| COc1ccccc1NC(=O)Cn1c(=O)n(CCc2ccccc2)c(=O)c2c3c(sc21)CN(C(C)=O)CC3 | inactive: -11.8% |
| COc1ccc(CNC(=O)CSc2ncc3c(n2)-c2cc(Cl)ccc2N(Cc2ccccc2)S3(=O)=O)cc1OC | inactive: 7.85% |
| Cc1ccc(S(=O)(=O)N2CCc3cc(C(=O)Nc4ccc(C)c(C)c4)ccc32)cc1 | inactive: -11.8% |
| CCC(=O)OCc1cnc(C)c2oc(=O)c(C(=O)Nc3ccccc3C(F)(F)F)cc12 | inactive: 3% |
| COc1cc2ccccc2cc1C(=O)Nc1cc(-c2nc3ccccc3o2)ccc1C | inactive: 12% |
| Cc1cccc(N(C)C(=O)CN(C)S(=O)(=O)c2ccc3[nH]c4c(c3c2)CCCC4)c1 | inactive: -23.8% |
| O=C(c1ccccc1)n1nc(-c2ccco2)nc1NCc1cccs1 | inactive: 0.403% |
| Cc1c(C(=O)OCC2CCCCC2)[nH]c2c1C(=O)CC(c1ccc(Cl)cc1)C2 (stereo not drawn) | inactive: 6.75% |

| Structure (SMILES) | activity change, negative = cytotoxicity |
| --- | --- |
| Cc1cccc(NC(=O)CSc2nc(C3CCCC3)nc3c2c(=O)n(C)c(=O)n3C)c1C | inactive: 5.92% |
| Cc1nnsc1C(=O)Oc1ccc(C(C)C)cc1 | inactive: 8.4% |
| CCN(CC)C(=O)c1sc2c(c1C)c(=O)n(-c1ccc(C)c(C)c1)c(=O)n2Cc1cc(=O)n2c(C)cccc2n1 | inactive: -11.6% |
| COc1ccc2c(c1)-c1nc(NC(=O)c3ccccc3F)sc1CC2 | inactive: -25% |
| CCn1c(=O)cc(OCC(=O)NCc2ccccc2Cl)c2ccccc21 | inactive: 4.12% |
| Cc1ccc(C(=O)Nc2ccc(C(=O)OCc3cc(=O)n4ccsc4n3)cc2)cc1 | inactive: 7.53% |
| O=C(Nc1nnc(S(=O)(=O)N2CCN(c3ccc(F)cc3)CC2)s1)c1ccc(Cl)cc1 | inactive: -3.94% |
| COc1ccc(C)cc1NC(=O)C(=O)NCC1(c2ccccc2)CCCC1 | inactive: -22.3% |
| CCCCSCCCNC(=O)CN1C(=O)COc2ccc(S(=O)(=O)N3CCC(C)CC3)cc21 | inactive: 9.83% |
| Cc1ccc(Cl)cc1NC(=O)COCc1cc(-c2ccco2)on1 | inactive: -13.4% |
| O=C(CNC(=O)c1ccc(Cl)cc1)OCc1cc(=O)n2ccsc2n1 | inactive: -0.76% |
| COc1ccc(-c2[nH]c3c(c2-c2c(-n4cccc4)n(C)c(=O)n(C)c2=O)c(=O)n(C)c(=O)n3C)cc1 | inactive: -1.23% |
| Cc1ccc(NC(=O)Cn2c(CCC(=O)O)ccc2-c2ccc(Cl)cc2)cc1 | inactive: -12.6% |
| COc1ccccc1N1CCN(c2ncnc3c2nc2n3CCCC2)CC1 | inactive: -17% |
| COC(=O)c1ccc(NC(=O)Cn2nc(C(=O)Nc3ccc(C)cc3)ccc2=O)cc1 | inactive: 2.97% |
| Cc1ccc(Cn2cc(CCC(=O)NCc3ccccc3F)c3ccccc32)cc1 | inactive: 3.33% |
| CCN(CC)S(=O)(=O)c1ccc2c(c1)N(CC(=O)N(C)Cc1ccccc1)C(=O)CO2 | inactive: 8.28% |
| Cc1cc(C)c2c(n1)SCCN2C(=O)Nc1ccc(C(=O)Nc2cc(Cl)ccc2C)cc1 | inactive: 2.91% |
| COc1cccc(C(=O)Nc2cc3cc(OC)ccc3oc2=O)c1 | inactive: -2.06% |
| COC(=O)c1cc2sc(Cl)cc2n1Cc1nc(-c2ccc(OC)cc2)oc1C | inactive: -2.64% |
| COc1ccc(N(CC(=O)NCCc2cccc(C)c2)S(=O)(=O)c2c(C)noc2C)cc1 | inactive: -5.41% |
